The other results are listed elsewhere or left out.
Experiments:
Assay in all cases: glycan array binding signal (z-score within array); higher = stronger binding
Details in all cases: glycan notation: IUPAC condensed, linker removed
[1] = molecular target: Fuc(a1-2)Gal
Outline: (§1)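 Columns mapping to the same glycan were averaged after glycan names were converted to IUPAC-condensed notation. The data come from 3228 arrays in the Consortium for Functional Glycomics database, limited to those with an available protein sequence. Binding is reported as a within-array Z-score averaged across arrays of one protein sequence and across linkers.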

[2] = molecular target: Fuc(a1-2)Gal(b1-3)GalNAc
Outline: as §1

[3] = molecular target: Fuc(a1-2)Gal(b1-3)GalNAc(b1-3)Gal
Outline: as §1

[4] = molecular target: Fuc(a1-2)Gal(b1-3)GalNAc(b1-3)Gal(a1-4)Gal(b1-4)Glc
Outline: as §1

[5] = molecular target: Fuc(a1-2)Gal(b1-3)GalNAc(b1-4)[Neu5Ac(a2-3)]Gal(b1-4)Glc
Outline: as §1

[6] = molecular target: Fuc(a1-2)Gal(b1-3)GlcNAc
Outline: as §1

[7] = molecular target: Fuc(a1-2)Gal(b1-3)[Fuc(a1-4)]GlcNAc
Outline: as §1

[8] = molecular target: Fuc(a1-2)Gal(b1-4)Glc
Outline: as §1

[9] = molecular target: Fuc(a1-2)Gal(b1-4)GlcNAc
Outline: as §1

[10] = molecular target: Fuc(a1-2)Gal(b1-4)GlcNAc(b1-3)Gal(b1-4)GlcNAc
Outline: as §1

[11] = molecular target: Fuc(a1-2)Gal(b1-4)GlcNAc(b1-3)Gal(b1-4)GlcNAc(b1-3)Gal(b1-4)GlcNAc
Outline: as §1

[12] = molecular target: Fuc(a1-2)Gal(b1-4)[Fuc(a1-3)]GlcNAc
Outline: as §1

[13] = molecular target: Fuc(a1-2)GlcNAc
Outline: as §1

[14] = molecular target: Fuc(a1-2)[Gal(a1-3)]Gal
Outline: as §1

[15] = molecular target: Fuc(a1-2)[Gal(a1-3)]Gal(b1-4)GlcNAc
Outline: as §1

[16] = molecular target: Fuc(a1-2)[Gal(a1-4)]Gal(b1-4)GlcNAc
Outline: as §1

[17] = molecular target: Fuc(a1-2)[GalNAc(a1-3)]Gal
Outline: as §1

[18] = molecular target: Fuc(a1-2)[GalNAc(a1-3)]Gal(b1-4)GlcNAc
Outline: as §1

[19] = molecular target: Fuc(a1-2)[GalNAc(a1-4)]Gal(b1-4)GlcNAc
Outline: as §1

[20] = molecular target: Fuc(a1-2)[GalNAc(b1-3)]Gal
Outline: as §1

[21] = molecular target: Fuc(a1-3)GlcNAc
Outline: as §1

[22] = molecular target: Fuc(a1-3)[Gal(b1-4)]GlcNAc
Outline: as §1

[23] = molecular target: Fuc(a1-3)[Gal(b1-4)]GlcNAc(b1-3)Gal(b1-4)[Fuc(a1-3)]GlcNAc
Outline: as §1

[24] = molecular target: Fuc(a1-3)[Gal(b1-4)]GlcNAc(b1-3)Gal(b1-4)[Fuc(a1-3)]GlcNAc(b1-3)Gal(b1-4)[Fuc(a1-3)]GlcNAc
Outline: as §1

[25] = molecular target: Fuc(a1-3)[Gal3S(b1-4)]GlcNAc
Outline: as §1

[26] = molecular target: Fuc(b1-3)GlcNAc
Outline: as §1

[27] = molecular target: Gal(a1-2)Gal
Outline: as §1

[28] = molecular target: Gal(a1-3)Gal
Outline: as §1

[29] = molecular target: Gal(a1-3)Gal(b1-4)Glc
Outline: as §1

[30] = molecular target: Gal(a1-3)Gal(b1-4)GlcNAc
Outline: as §1

[31] = molecular target: Gal(a1-3)Gal(b1-4)[Fuc(a1-3)]GlcNAc
Outline: as §1

[32] = molecular target: Gal(a1-3)GalNAc
Outline: as §1

[33] = molecular target: Gal(a1-3)[Gal(a1-4)]Gal(b1-4)GlcNAc
Outline: as §1

[34] = molecular target: Gal(a1-4)Gal(b1-4)Glc
Outline: as §1

[35] = molecular target: Gal(a1-4)Gal(b1-4)GlcNAc
Outline: as §1

[36] = molecular target: Gal(a1-4)GlcNAc
Outline: as §1

[37] = molecular target: Gal(a1-6)Glc
Outline: as §1

[38] = molecular target: Gal(b1-2)Gal
Outline: as §1

[39] = molecular target: Gal(b1-3)Gal
Outline: as §1

[40] = molecular target: Gal(b1-3)GalNAc
Outline: as §1

[41] = molecular target: Gal(b1-3)GalNAc(b1-4)Gal(b1-4)Glc
Outline: as §1

[42] = molecular target: Gal(b1-3)GalNAc(b1-4)[Neu5Ac(a2-3)]Gal(b1-4)Glc
Outline: as §1

[43] = molecular target: Gal(b1-3)GlcNAc
Outline: as §1

[44] = molecular target: Gal(b1-3)GlcNAc(b1-3)Gal(b1-4)Glc
Outline: as §1

[45] = molecular target: Gal(b1-3)[Fuc(a1-4)]GlcNAc
Outline: as §1

B1: RegIIIbeta (Mus musculus), P35230 (protein)
chain: MLPPTACSVMSWMLLSCLMLLSQVQGEDSLKNIPSARISCPKGSQAYGSYCYALFQIPQTWFDAELACQKRPGGHLVSVLNSAEASFLSSMVKRTGNSYQYTWIGLHDPTLGAEPNGGGWEWSNNDVMNYFNWERNPSTALDRAFCGSLSRASGFLKWRDMTCEVKLPYVCKFTG
What does the source list for B1?
glycan array binding signal (z-score) [1]: -0.114; glycan array binding signal (z-score) [2]: -0.079; glycan array binding signal (z-score) [3]: -0.108; glycan array binding signal (z-score) [4]: -0.111; glycan array binding signal (z-score) [5]: -0.043; glycan array binding signal (z-score) [6]: -0.104; glycan array binding signal (z-score) [7]: -0.098; glycan array binding signal (z-score) [8]: -0.114; glycan array binding signal (z-score) [9]: -0.116; glycan array binding signal (z-score) [10]: -0.122; glycan array binding signal (z-score) [11]: 0.15; glycan array binding signal (z-score) [12]: -0.097; glycan array binding signal (z-score) [13]: -0.111; glycan array binding signal (z-score) [14]: -0.087; glycan array binding signal (z-score) [15]: -0.098; glycan array binding signal (z-score) [16]: -0.125; glycan array binding signal (z-score) [17]: -0.094; glycan array binding signal (z-score) [18]: -0.107; glycan array binding signal (z-score) [19]: -0.04; glycan array binding signal (z-score) [20]: -0.111; glycan array binding signal (z-score) [21]: -0.114; glycan array binding signal (z-score) [22]: 0.028; glycan array binding signal (z-score) [23]: -0.102; glycan array binding signal (z-score) [24]: -0.122; glycan array binding signal (z-score) [25]: -0.12; glycan array binding signal (z-score) [26]: -0.024; glycan array binding signal (z-score) [27]: -0.111; glycan array binding signal (z-score) [28]: -0.097; glycan array binding signal (z-score) [29]: -0.117; glycan array binding signal (z-score) [30]: -0.085; glycan array binding signal (z-score) [31]: -0.098; glycan array binding signal (z-score) [32]: -0.118; glycan array binding signal (z-score) [33]: 0.048; glycan array binding signal (z-score) [34]: -0.11; glycan array binding signal (z-score) [35]: -0.081; glycan array binding signal (z-score) [36]: -0.112; glycan array binding signal (z-score) [37]: -0.06; glycan array binding signal (z-score) [38]: -0.101; glycan array binding signal (z-score) [39]: -0.105; glycan array binding signal (z-score) [40]: -0.104; glycan array binding signal (z-score) [41]: -0.104; glycan array binding signal (z-score) [42]: -0.059; glycan array binding signal (z-score) [43]: -0.097; glycan array binding signal (z-score) [44]: -0.099; glycan array binding signal (z-score) [45]: -0.111
